# Assay results reported in PubChem BioAssay AID624418 (National Center for Advancing Translational Sciences (NCATS), 2012).
# About 530 (0.13%) of roughly 410,000 compounds were called active. This list was built around the results that the source calls inconclusive (neither active nor inactive); the mix of calls is not that of the screen. The call rests on the fitted dose curve; in most records, active means well fitted inhibition curve with a large enough effect; inconclusive means small, poorly fitted or top-dose-only effect, or another doubt; inactive means no such curve, though single readings can be large or run the other way. A potency beside an inconclusive call is a rough fit, not a confirmed value.
# Assay: qHTS of GLP-1 Receptor Inverse Agonists: Cytotox Screen
# Conditions: HEK293 cAMP-luciferase reporter cells, luminescence, 24 h; series mostly up to 38.3 µM
# Outline: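 Quantitative HTS format, 1536 wells, 200 cells/uL seeded. Compounds: 23 nL, 24 h, 37 °C. Detection: luciferase reagent, luminescence at 12 min RT; decreased signal taken as cytotoxic.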
# Potency means the concentration at half of the fitted maximal effect.
row,Compound,Potency
1,CC1CCc2sc(C(=O)NCC(c3ccco3)N3CCCCC3)cc2C1 (stereo not drawn),"inconclusive: 28.2 µM [inhibitor, single point]"
2,Cc1c2ccccc2cc[n+]1CCCS(=O)(=O)[O-],inactive
3,C#CCOCCOCCOCCNc1nc(N2CCN(C(=O)[C@H](CO)n3cc([C@@H](N)C(C)C)nn3)CC2)nc(N2CCN(C(=O)[C@H](CCCCN)n3cc([C@@H](N)[C@H](C)CC)nn3)CC2)n1,"inconclusive: 0.501 µM [inhibitor, full curve, poor fit]"
4,O=C(COc1ccc(Br)cc1CNCCc1ccccc1)NCc1ccccc1,"inconclusive: 11.2 µM [inhibitor, single point]"
5,CCc1cc2c(=O)c(-c3ccc4c(c3)OCCO4)c(C)oc2cc1OS(C)(=O)=O,"inconclusive: 28.2 µM [inhibitor, single point]"
6,CCCOC1CCCN(C(=O)c2ccc(OC3CCN(C(=O)COC)CC3)cc2)C1 (stereo not drawn),active: 10 µM
7,CN(/N=C/c1ccccc1O)C(=S)c1ccccc1,"inconclusive: 25.1 µM [inhibitor, partial curve, poor fit]"
8,Cc1ccc(Cl)cc1N1CCN(C(=O)c2cnn(-c3ccc(Cl)cc3)c2C2CCNCC2)CC1,"inconclusive: 22.4 µM [inhibitor, single point]"
9,O=C(N/N=C1\CC(c2ccccc2)Oc2ccccc21)c1ccc(O)cc1 (stereo not drawn),inactive
10,CCCCNC(=O)COC(=O)c1c2c(nc3ccccc13)CCC2,"inconclusive: 5.62 µM [inhibitor, partial curve]"
11,COCCN1C(=O)/C(=C/c2cc3c(cc2Br)OCO3)NC1=S,"inconclusive: 28.2 µM [inhibitor, partial curve, poor fit]"
12,CCOc1ccc(NC(=O)c2c(NC(=O)c3ccccc3F)sc3c2CCC3)cc1,inactive
13,C=CCN1C(=O)/C(=C/c2ccc(OC(C)=O)c(OCC)c2[N+](=O)[O-])SC1=S,"inconclusive: 14.1 µM [inhibitor, partial curve, poor fit]"
14,Cc1ccccc1NC1=NC(=S)N(CC(N)=O)C12CCOC(C)(C)C2 (stereo not drawn),"inconclusive: 28.2 µM [inhibitor, single point]"
15,C=CCNC(=O)/C(C#N)=C/c1c(N(Cc2ccccc2)Cc2ccccc2)nc2ccccn2c1=O,"inconclusive: 28.2 µM [inhibitor, single point]"
16,CCC(=O)N1CCc2cc(Br)cc(S(=O)(=O)CCC(=O)Nc3ccc(C)c(F)c3)c21,inactive
17,CCn1c(C)c(C)c2cc(C(=O)NCc3ccc(OC)cc3OC)ccc21,inactive
18,O=[N+]([O-])c1cc(Br)c(Nc2ccccc2)c([N+](=O)[O-])c1,"inconclusive: 5.62 µM [inhibitor, full curve, poor fit]"
